Laboratory results: PubChem BioAssay AID1508623 (National Center for Advancing Translational Sciences (NCATS), 2021)
Screen size: about 48,000 compounds; about 450 (0.94%) were called active. About 19% were inconclusive and are not listed. Calls follow the shape of the dose curve; as a rule, active = well fitted inhibition curve with a large enough effect; inconclusive = small, poorly fitted or top-dose-only effect; inactive = no such curve, though single readings can be large or run the other way. The list shows a part of the results.

experiment: Primary qHTS for Identification of Small Molecule Inhibitors of Huntingtin Promoter Activity; conditions: HEK293 HTT promoter firefly luciferase reporter (activity 0% = vehicle and -100% = no light), 24 h; series mostly up to 57.5 µM; activity change, negative = inhibition: at the top concentration; also: nearly all actives have a fitted effect of over 50% in size
Procedure, shortened: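 Luminescence was read after Dual-Glo reagent and a 10 min room-temperature incubation. Values were normalized to vehicle (0% activity) and zero RLU (-100% activity). Reporter HEK293 cells had been exposed to compounds (up to 57.5 uM final) for 24 h.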

Activity change, negative = inhibition, inactive:
COc1ccc(N2CCN(C(=O)CCS(=O)(=O)c3cc4c(cc3Cl)NC(=O)CO4)CC2)cc1 -22.9%
Cc1ccc(C)c(N(C)C(=O)C2CCN(S(=O)(=O)c3cccc4nsnc34)CC2)c1 -19.1%
COc1ccc(-c2nnn3c2nc(N2CCCC(C)C2)c2ccccc23)cc1 (configuration not stated) -17.7%
CC(=O)c1cc(C(=O)Nc2cccc(C)c2)c2ccccn12 18.8%
CCOC(=O)c1ccc(NC(=O)CC2C(=O)N(c3ccccc3)C(=O)N2Cc2cccs2)cc1 (configuration not stated) -25.4%
Cc1ccc(S(=O)(=O)c2[nH]c(-c3ccccc3)nc2SCC(=O)O)cc1 -17.6%
COc1ccc(N2CCN(CC(O)COc3ccc(C(C)(C)C)cc3)CC2)cc1 (configuration not stated) -23%
O=c1c2sc3ccccc3c2n(Cc2ccccc2)c(=O)n1Cc1ccccc1 -11.9%
CCN(C(=O)Cc1c(C(=O)O)[nH]c2ccccc12)c1ccc(OC)cc1 -20.5%
CCc1ccc(CN(C(=O)c2nc(SC)ncc2Cl)C2CCS(=O)(=O)C2)cc1 (configuration not stated) -23.5%
CCC(=O)N1c2ccccc2CC1C(=O)N1CCN(c2ccccc2)CC1 (configuration not stated) -2.69%
CC(C)Cc1nn2c(=O)cc(COC(=O)c3ccc(NC(=O)c4cccs4)cc3)nc2s1 -2.18%
CC(=O)c1ccc(N2CCN(C(=O)C3CCN(S(=O)(=O)c4cccc5nonc45)CC3)CC2)cc1 -12.4%
CCOc1ccccc1NC(=O)Cn1c(=O)ccc2cc(S(=O)(=O)N3CCC(C)CC3)ccc21 -35%
CCOC(=O)c1ccc(NC(=O)CCc2c(C)nc3c(c(C)nn3C)c2C)cc1 -26.2%
CCOC(=O)C1CCN(C(=O)C2COc3ccccc3C2)CC1 (configuration not stated) -17.8%
O=C(c1cc2ccccc2oc1=O)N(Cc1cccc(Cl)c1)C1CCS(=O)(=O)C1 (configuration not stated) -10.3%
COc1cccc(-n2ccnc2SCC(=O)Nc2cccc(C)c2C)c1 -16.5%
CCc1ccc(NC(=O)Cn2cnc3sc(C)c(S(=O)(=O)N4CCC(C)CC4)c3c2=O)cc1 -17.4%
CCCC(=O)NCC(c1ccc2c(c1)OCO2)N1CCN(c2ccc(F)cc2)CC1 (configuration not stated) -22%
COc1ccc(-n2ncc(C(=O)NCc3ccccc3)c2C2CCN(C(=O)OC(C)(C)C)CC2)cc1 -14.6%
COc1ccc(-c2nc3c(C#N)c[nH]n3c2NC2CCCCC2)c(OC)c1 -29.3%
COc1ccc(CCNC(=O)CCn2c(=O)c3cccn3c3ccc(F)cc32)c(OC)c1OC 2.65%
Cc1ccc(OCc2nc3ccccc3n2CC(C)C)cc1 -5.63%
CCOc1ccccc1CNC(=O)Nc1cn(CC(C)C)c(=O)c2ccccc12 -16.7%
CC(Oc1ccccc1)C(=O)Nc1nc2ccc(S(N)(=O)=O)cc2s1 (configuration not stated) -14%
Cc1cc2c(cc1S(=O)(=O)NCc1ccc(N(C)C)cc1)OCC(=O)N2 -36.4%
COc1ccc(N(CC(=O)NC(C)c2ccccc2)S(=O)(=O)c2c(C)noc2C)cc1 (configuration not stated) -8.12%
Cc1ccc(CN2CCC(CNc3ncnc4onc(-c5ccc(Cl)cc5)c34)CC2)cc1 -19.6%
CCOC(=O)c1noc2ncnc(N3CCN(c4ccccc4OC)CC3)c12 -20.7%
COc1cc(C2NC(=O)NC(C)=C2C(=O)Nc2cc(C)cc(C)c2)ccc1O (configuration not stated) -2.1%
COc1ccc2c(c1)c(C1=C(c3c[nH]c4ccccc34)C(=O)NC1=O)cn2CCCN(C)C -22.3%
CC(C)(C)NS(=O)(=O)c1ccc2nc(NC(=O)c3cccnc3)sc2c1 0.178%
COC(=O)CNC(=O)Nc1cc(C(=O)NCc2ccc(C)cc2)ccc1N1CCCC1 -19.6%
COC(=O)C1CCN(S(=O)(=O)c2cc3c4c(c2)C(C)C(=O)N4CCC3)CC1 (configuration not stated) -10.9%
CC(=O)N1c2ccccc2CC1C(=O)N1CCN(c2ccc(F)cc2)CC1 (configuration not stated) -12.2%
COc1ccc(C)cc1NC(=O)c1oc2ccc(S(=O)(=O)N(C)C3CCCCC3)cc2c1C -5.8%
O=C(Nc1ccc(F)cc1F)c1ccc(CN2CC(=O)N3CCCCC3C2=O)cc1 (configuration not stated) -17.8%
CC(C)(C)c1cc(C(C)(C)C)c2oc(=O)c(-c3nc4ccccc4[nH]3)cc2c1 -20.2%
O=C(CSc1nc2ccccc2c2nc(-c3ccccc3)nn12)Nc1ccc(Br)cc1 17.7%
Cc1ccc(Cn2c(SCC(=O)NCc3ccc(Cl)cc3)nc3ccsc3c2=O)cc1 -8.02%
COCCCNC(=O)Cn1c(=O)n(-c2ccc(C)cc2)c(=O)c2c1c1cc(C)ccc1n2C -3.08%
CCS(=O)(=O)N1CC(=O)N(c2ccccc2C)C(C)(C(=O)NC2CCCCC2)C1 (configuration not stated) -1.79%
O=c1cc(-c2ccccc2)oc2cc(O)cc(O)c12 43%
Cc1ccc(Cl)cc1N1CCN(C(=O)c2cn(C3CCCCC3)c(=O)c3c2c2ccccc2n3C)CC1 -19.6%
CN(C)c1ccc(C(CNC(=O)COc2ccc(Cl)cc2)N2CCOCC2)cc1 (configuration not stated) -6.16%
CC(C)c1ccc(S(=O)(=O)c2nnn3c2nc(NCCc2ccccc2)c2sccc23)cc1 -15.1%
Cc1ccc(CNC(=O)c2cc3sccc3n2Cc2ccc(Cl)cc2)cc1 -9.53%
CC(CCc1ccccc1)NC(=O)Cn1ncc2c3ccccc3n(Cc3ccc(F)cc3)c2c1=O (configuration not stated) -12.5%
CCCn1c(=O)c2sccc2n2c(CCCC(=O)NCCc3ccc(Cl)cc3)nnc12 -8.31%
CC(=O)Nc1ccc(S(=O)(=O)NCC2CCC(C(=O)NCCc3ccccc3)CC2)cc1 (configuration not stated) -2.7%
Cc1nn(C(=O)c2cccc([N+](=O)[O-])c2C)c(C)c1S(=O)(=O)N1CCOCC1 -8.86%
Cc1ccc(NC(=O)CC(C)S(=O)(=O)c2ccc3c(c2)NC(=O)CO3)c(C)c1 (configuration not stated) 19.4%
CCO[C@H](Cc1ccc(OCCc2ccc(OS(C)(=O)=O)cc2)cc1)C(=O)O 11.7%
COCC(=O)Oc1c(Sc2ccc(C)cc2)c(C)nn1C(C)(C)C -24.3%
COc1cccc(N2CC(NC(=O)C(c3ccccc3)c3ccccc3)CC2=O)c1 (configuration not stated) -27.8%
c1cnc2cc3c(cc2n1)C1CNCC3C1 23.1%
Cc1ccc2nc(-c3ccsc3)c(Nc3ccccc3C)n2c1 -15.5%
O=C(NCc1ccc(F)cc1)c1ccc(CSCc2cccc(Cl)c2)o1 -18.9%
COCCNC(=O)Cc1ccc(NC(=O)N2CCCCc3ccccc32)cc1 -3.47%
COCCNC(=O)c1cnn(-c2ccc(C)cc2C)c1C1CCN(C(=O)OC(C)(C)C)CC1 -16.8%
COC(=O)c1scc(-c2ccccc2)c1S(=O)(=O)Nc1ccccc1 -18.9%
